PubChem BioAssay AID1508624 (National Center for Advancing Translational Sciences (NCATS), 2021)
In all, about 48,000 compounds went through this assay and about 120 (0.25%) were called active. Not shown: some 4% with an inconclusive outcome. Calls follow the shape of the dose curve; as a rule, active = well fitted activation curve with a large enough effect; inconclusive = small, poorly fitted or top-dose-only effect, or another doubt; inactive = no such curve, though single readings can be large or run the other way. The list shows a part of the results.

Assay: Primary qHTS for Identification of Small Molecule Activators of Huntingtin-Antisense Promoter Activity; also: nearly all actives have a fitted effect of over 55% in size
Conditions: HEK293 HTT-AS promoter firefly luciferase reporter (activity 0% = vehicle and -100% = no light), 24 h; series mostly up to 57.5 µM; activity change, positive = activation: at the top concentration
In short: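 HEK293 luciferase promoter-reporter cells (2,500/well) plated 24 h, then compounds added at up to 57.5 uM final for 24 h at 37 °C. Firefly luminescence by Dual-Glo, normalized to vehicle (0%) and zero RLU (-100%).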

Activity change, positive = activation, inactive:
COc1cc(C(=O)N(CCCN(C)C)c2nc3c(OC)cccc3s2)cc(OC)c1OC -0.332%
O=C(NC1CCCC1)c1ccc2c(c1)N(Cc1c(F)cccc1Cl)C(=O)c1ccccc1S2 -26.4%
COc1cccc(NC(=O)CN2C(=O)COc3ccc(S(=O)(=O)N4CCOCC4)cc32)c1 -4.02%
Cc1[nH]c2ccccc2c1C1(O)C(=O)N(Cc2ccccc2)c2ccc(Br)cc21 (centres undefined) -28%
CN(c1nnc(NC(=O)Nc2ccc(Br)cc2)s1)C1CCCCC1 18.8%
COc1ccccc1CNc1ncnc2onc(-c3ccc(Cl)cc3)c12 -35.6%
Cc1ccc(NC(=O)Nc2csc3c2CCCC3)c(C)c1 -6.43%
CCCS(=O)(=O)NCCc1sc2nc(-c3ccc(Cl)cc3)nn2c1C -13.6%
Cc1cc(C(=O)Nc2ccc(Cl)cc2)c2c(C)nn(-c3ccccc3)c2n1 -21.8%
NC(=O)C1CCN(C(=O)c2ccccc2NC(=O)c2nsc3ccccc23)CC1 18.7%
CCOC(=O)c1c(NC(=O)c2cc(=O)c3c(C)cc(C)cc3o2)sc(C)c1C -2%
O=C(NCCn1cc(SCc2ccc(C(F)(F)F)cc2)c2ccccc21)c1cccs1 -41.7%
COc1ccc(-n2nc3c(N4CCCC(C(=O)NCc5ccccc5C)C4)nnc(C)c3c2C)cc1 (centres undefined) -84.2%
COc1ccc2c(c1)c(CC(=O)OC/C=C(\C)CC/C=C(\C)CCC=C(C)C)c(C)n2C(=O)c1ccc(Cl)cc1 -2.03%
CNC(=O)C1CCC(Cn2c(=O)c3sccc3n(CC(=O)Nc3ccc(C)cc3C)c2=O)CC1 (centres undefined) -14.4%
Cc1cccc(NC(=O)CSc2nc(=O)n(CCN3CCOCC3)c3c2CCC3)c1 -2.92%
Cc1ccc(-n2ncc(C(=O)NCCN3CCc4ccccc4C3)c2C2CCN(C(=O)OC(C)(C)C)CC2)c(C)c1 0%
Cc1ccc2nc(-c3ccc(N4CCOCC4)cc3)c(Nc3ccccc3C)n2c1 19.2%
O=C(CN1C(=O)COc2ccc(S(=O)(=O)NC3CCCC3)cc21)Nc1ccc(F)c(Cl)c1 -45.3%
Cc1cccc(C(=O)NCc2nnc(SCC(=O)Nc3ccccc3F)n2-c2ccccc2)c1 -12.3%
CCc1cccc(-n2nnc(-c3nc(-c4ccc5c(c4)OCO5)no3)c2C)c1 -7.56%
CCOC(=O)c1cc(-c2ccc(OC)cc2)n(CCC(=O)NC2CCC(C)CC2)c1C (centres undefined) -15.9%
CCOc1ccc(-c2n[nH]c3c2C(c2cccs2)N(c2ccc(Br)cc2)C3=O)cc1 (centres undefined) -73.4%
COc1ccc(NC(=O)CSc2nc(-c3ccccc3)c3ccccc3n2)cc1 -7.74%
COc1ccc(N2CCN(C(=O)Nc3ccc(Cl)cc3)CC2)cc1 -15.5%
COc1ccc(S(=O)(=O)N2CCN(C(=O)c3cc(-c4ccc(Br)cc4)n[nH]3)CC2)cc1OC -56.8%
CCOc1ccc(N(CC(=O)NCc2ccc(C)cc2)S(=O)(=O)c2c(C)[nH]c(=O)[nH]c2=O)cc1 -9.54%
Brc1ccc(-c2csc(-c3nc(-c4ccc(Br)s4)cs3)n2)cc1 -4.65%
CCOC(=O)N1CCc2c(sc(NCc3ccc(N(C)C)cc3)c2C(=O)Nc2ccccc2OCC)C1 -38.7%
CCN1CCN(C(c2cccc(OC)c2)c2c(O)cc(C)n(Cc3ccco3)c2=O)CC1 (centres undefined) -11.7%
CCc1ccc(NC(=O)c2sc3nc(-c4ccccc4)cn3c2C)cc1 -4.38%
CCN(CC)CCNC(=O)Cn1cnc2sc(C)c(S(=O)(=O)N3CCN(c4ccccc4OC)CC3)c2c1=O 18%
O=C(Nc1ccccc1C(F)(F)F)N1Cc2ccccc2Oc2ncccc21 5.41%
COc1cccc(C2C=C(c3ccc(C)cc3)Nc3c(C(=O)Nc4ccc(F)cc4)cnn32)c1OC (centres undefined) -6.13%
CCOc1ccc(NC(=O)CSc2oc(-c3ccco3)nc2S(=O)(=O)c2ccc(Cl)cc2)cc1 -29.6%
CC(NC(=O)c1ccc(Cn2c(SCc3ccccc3)nc3cccnc32)cc1)c1ccccc1 (centres undefined) -0.804%
COc1ccc(CN(C(=O)c2ccc(OCC(C)C)cc2)C2CCS(=O)(=O)C2)cc1 (centres undefined) -16.2%
CC(CCc1ccccc1)NC(=O)Cn1ncc2c3ccccc3n(Cc3cccc(Cl)c3)c2c1=O (centres undefined) -1.44%
COc1ccc(Cl)cc1NC(=O)c1c(NCc2cccnc2)sc2c1CCCC2 -19.5%
CC(C)(C)OC(=O)N1CCC(c2c(C(=O)NCCc3ccsc3)cnn2-c2ccc(F)cc2F)CC1 -17.6%
COc1ccccc1C(=O)Nc1nnc(S(=O)(=O)N2CCCCC2)s1 19.6%
CCOC(=O)c1c(Nc2ccc(OCC)cc2)nnc(-c2ccccc2)c1-c1ccccc1 -45.4%
COc1ccccc1NC(=O)CSc1ncc(CO)n1Cc1ccc(F)cc1 -26.1%
COc1ccc2ncc3c(-c4ccccc4)nn(-c4ccc(C)c(C)c4)c3c2c1 -26.5%
CC(C)c1cnc2c(c1SCC(=O)c1ccc(Cl)cc1)c(=O)n(C)c(=O)n2C -38.1%
Cc1ccccc1NC(=O)Cn1c(=O)n(Cc2ccco2)c(=O)c2ccc(C(=O)NC3CCCC3)cc21 -17.1%
Cc1cc(-c2ccccc2)nc2cc(C(=O)Nc3ccc(Cl)c(Cl)c3)nn12 -8.7%
CCN(CC)Cc1ccc2cc(COC(=O)Nc3ccc(C(=O)NO)cc3)ccc2c1 11.8%
CCOc1ccc(NCc2cccn2-c2nnc(N3CCC(C(=O)NCCc4ccc(OCC)c(OCC)c4)CC3)s2)cc1 -52%
CC1CN(C(=O)Nc2ccc(C(=O)NCCc3ccc(Cl)cc3)cc2)c2ccccc2S1 (centres undefined) -13.5%
COCCn1c(C)cc(O)c(C(c2ccc(OC)cc2)N2CCCCC2)c1=O (centres undefined) -8.48%
CC(=O)Oc1cccc2c1C(=O)c1c(OC(C)=O)cc(C(=O)O)cc1C2=O -15.8%
Cc1ccccc1NC(=O)CSCn1nnc2c(=O)[nH]c(Cc3ccc(F)cc3)nc21 7.02%
CCCC(=O)Nc1ccc2nc(SCCOc3ccccc3)sc2c1 -6.32%
CCCN1Cc2cccc(C(=O)Nc3ccccc3F)c2C1=O -11.7%
Cc1cccc(NC(=O)C(=O)NCC(c2cccnc2)N2CCN(Cc3ccccc3)CC2)c1 (centres undefined) -22.7%
Cn1c(C(=O)NCCc2ccccc2)cc2cc(S(=O)(=O)N3CCCCC3)ccc21 -35%
COc1ccc(OC)c(NC(=O)C(Cc2ccccc2)NS(=O)(=O)c2ccc3c(c2)CCC(=O)N3)c1 (centres undefined) -27.8%
CCn1cc2nc(SCc3c(F)cccc3Cl)n(CCc3ccccc3)c(=O)c2n1 -9.06%
